# Laboratory results: the supplement of paper PMC8728848
# This is one part of the list.
# B1: SCA (Schizophyllum commune) (protein)
# chain: MGIDQGVYLITNAGSGTAATLKDGYVKGWERIKGKEQLNQLWFVKSVKTSASDPGYAAFNLATNKVLDLEKGLADRGTPILGWDYHEGDNQHWVIKKQADGKYYKIQSVKTQTFVDLNNGGKDNGTKIQGWVGSWDETNSHQRWVFNQFSATGSRIKSILDTHPKIHGKVIVEWPDRIYFTPDQYIFEAIWAKTGLADIKPRDPLFQSEAYEKVFKGWVVSRAQEIIKVDGFDILVGSLSLVEKSTQKIKVLDVSVRTSDDKSPDLSQIVFFDPESGRTLVDIPEGYEVNSVII
# What was measured:
# Test in all cases: glycan array binding signal (z-score within array); higher = stronger binding
# Details in all cases: glycan notation: IUPAC condensed, linker removed
# [1] = molecular target: Fuc(a1-2)[GalNAc(a1-3)]Gal(b1-4)[Fuc(a1-3)]GlcNAc
# Outline: (§1)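 Arrays were curated from the Consortium for Functional Glycomics database, 3228 in total, and kept only where the protein sequence was available. Binding is expressed as a within-array Z-score. This score was averaged across arrays of the same protein sequence at different concentrations or buffers and across linkers, and negative values can be read as non-binding.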
# [2] = molecular target: Fuc(a1-2)[GalNAc(a1-3)]Gal(b1-4)[Fuc(a1-3)]GlcNAc(b1-3)GalNAc
# Outline: as §1
# [3] = molecular target: Fuc(a1-2)[GalNAc(a1-4)]Gal(b1-4)GlcNAc
# Outline: as §1
# [4] = molecular target: Fuc(a1-2)[GalNAc(b1-3)]Gal
# Outline: as §1
# [5] = molecular target: Fuc(a1-3)GlcNAc
# Outline: as §1
# [6] = molecular target: Fuc(a1-3)[Gal(b1-4)]Glc6S
# Outline: as §1
# [7] = molecular target: Fuc(a1-3)[Gal(b1-4)]GlcNAc
# Outline: as §1
# [8] = molecular target: Fuc(a1-3)[Gal(b1-4)]GlcNAc(b1-2)Man(a1-3)[Fuc(a1-3)[Gal(b1-4)]GlcNAc(b1-2)Man(a1-6)]Man(b1-4)GlcNAc(b1-4)GlcNAc
# Outline: as §1
# [9] = molecular target: Fuc(a1-3)[Gal(b1-4)]GlcNAc(b1-2)Man(a1-3)[Fuc(a1-3)[Gal(b1-4)]GlcNAc(b1-2)Man(a1-6)]Man(b1-4)GlcNAc(b1-4)[Fuc(a1-6)]GlcNAc
# Outline: as §1
# [10] = molecular target: Fuc(a1-3)[Gal(b1-4)]GlcNAc(b1-3)Gal(b1-3)[Fuc(a1-4)]GlcNAc
# Outline: as §1
# [11] = molecular target: Fuc(a1-3)[Gal(b1-4)]GlcNAc(b1-3)GalNAc
# Outline: as §1
# [12] = molecular target: Fuc(a1-3)[Gal(b1-4)]GlcNAc(b1-4)Gal(b1-4)[Fuc(a1-3)]GlcNAc
# Outline: as §1
# [13] = molecular target: Fuc(a1-3)[Gal(b1-4)]GlcNAc(b1-4)Gal(b1-4)[Fuc(a1-3)]GlcNAc(b1-4)Gal(b1-4)[Fuc(a1-3)]GlcNAc
# Outline: as §1
# [14] = molecular target: Fuc(a1-3)[Gal(b1-4)]GlcNAc(b1-6)GalNAc
# Outline: as §1
# [15] = molecular target: Fuc(a1-3)[Gal(b1-4)]GlcNAc(b1-6)[Gal(b1-3)GlcNAc(b1-3)]Gal(b1-4)Glc
# Outline: as §1
# [16] = molecular target: Fuc(a1-3)[Gal(b1-4)]GlcNAc(b1-6)[Neu5Ac(a2-3)Gal(b1-3)]GalNAc
# Outline: as §1
# [17] = molecular target: Fuc(a1-3)[Gal(b1-4)]GlcNAc6S
# Outline: as §1
# [18] = molecular target: Fuc(a1-3)[Gal3S(b1-4)]GlcNAc
# Outline: as §1
# [19] = molecular target: Fuc(a1-3)[Gal3S(b1-4)]GlcNAc6S
# Outline: as §1
# [20] = molecular target: Fuc(a1-3)[GalNAc(b1-4)]GlcNAc
# Outline: as §1
# [21] = molecular target: Fuc(a1-4)GlcNAc
# Outline: as §1
# [22] = molecular target: Fuc(b1-3)GlcNAc
# Outline: as §1
# [23] = molecular target: Gal(a1-2)Gal
# Outline: as §1
# [24] = molecular target: Gal(a1-3)Gal
# Outline: as §1
# [25] = molecular target: Gal(a1-3)Gal(b1-3)GlcNAc
# Outline: as §1
# [26] = molecular target: Gal(a1-3)Gal(b1-3)GlcNAc(b1-2)Man(a1-3)[Gal(a1-3)Gal(b1-3)GlcNAc(b1-2)Man(a1-6)]Man(b1-4)GlcNAc(b1-4)GlcNAc
# Outline: as §1
# [27] = molecular target: Gal(a1-3)Gal(b1-3)GlcNAc(b1-3)GalNAc
# Outline: as §1
# [28] = molecular target: Gal(a1-3)Gal(b1-3)[Fuc(a1-4)]GlcNAc(b1-2)Man(a1-3)[Gal(a1-3)Gal(b1-3)[Fuc(a1-4)]GlcNAc(b1-2)Man(a1-6)]Man(b1-4)GlcNAc(b1-4)GlcNAc
# Outline: as §1
# [29] = molecular target: Gal(a1-3)Gal(b1-4)Glc
# Outline: as §1
# [30] = molecular target: Gal(a1-3)Gal(b1-4)GlcNAc
# Outline: as §1
# [31] = molecular target: Gal(a1-3)Gal(b1-4)GlcNAc(b1-3)GalNAc
# Outline: as §1
# [32] = molecular target: Gal(a1-3)Gal(b1-4)[Fuc(a1-3)]GlcNAc
# Outline: as §1
# [33] = molecular target: Gal(a1-3)Gal(b1-4)[Fuc(a1-3)]GlcNAc(b1-2)Man(a1-3)[Gal(a1-3)Gal(b1-4)[Fuc(a1-3)]GlcNAc(b1-2)Man(a1-6)]Man(b1-4)GlcNAc(b1-4)GlcNAc
# Outline: as §1
# [34] = molecular target: Gal(a1-3)GalNAc
# Outline: as §1
# [35] = molecular target: Gal(a1-3)[Gal(a1-4)]Gal(b1-4)GlcNAc
# Outline: as §1
# [36] = molecular target: Gal(a1-4)Gal(b1-3)GlcNAc(b1-2)Man(a1-3)[Gal(a1-4)Gal(b1-3)GlcNAc(b1-2)Man(a1-6)]Man(b1-4)GlcNAc(b1-4)GlcNAc
# Outline: as §1
# [37] = molecular target: Gal(a1-4)Gal(b1-4)Glc
# Outline: as §1
# [38] = molecular target: Gal(a1-4)Gal(b1-4)GlcNAc
# Outline: as §1
binder,measurement,setting,value
B1,glycan array binding signal (z-score),[1],-0.153
same,glycan array binding signal (z-score),[2],-0.129
same,glycan array binding signal (z-score),[3],0.703
same,glycan array binding signal (z-score),[4],-0.163
same,glycan array binding signal (z-score),[5],-0.163
same,glycan array binding signal (z-score),[6],-0.16
same,glycan array binding signal (z-score),[7],-0.162
same,glycan array binding signal (z-score),[8],-0.162
same,glycan array binding signal (z-score),[9],-0.156
same,glycan array binding signal (z-score),[10],-0.159
same,glycan array binding signal (z-score),[11],-0.161
same,glycan array binding signal (z-score),[12],-0.16
same,glycan array binding signal (z-score),[13],-0.163
same,glycan array binding signal (z-score),[14],-0.157
same,glycan array binding signal (z-score),[15],-0.16
same,glycan array binding signal (z-score),[16],-0.161
same,glycan array binding signal (z-score),[17],-0.16
same,glycan array binding signal (z-score),[18],-0.161
same,glycan array binding signal (z-score),[19],-0.16
same,glycan array binding signal (z-score),[20],-0.162
same,glycan array binding signal (z-score),[21],-0.163
same,glycan array binding signal (z-score),[22],-0.159
same,glycan array binding signal (z-score),[23],-0.159
same,glycan array binding signal (z-score),[24],-0.122
same,glycan array binding signal (z-score),[25],-0.119
same,glycan array binding signal (z-score),[26],-0.16
same,glycan array binding signal (z-score),[27],-0.09
same,glycan array binding signal (z-score),[28],-0.15
same,glycan array binding signal (z-score),[29],-0.147
same,glycan array binding signal (z-score),[30],8.25
same,glycan array binding signal (z-score),[31],2.37
same,glycan array binding signal (z-score),[32],-0.163
same,glycan array binding signal (z-score),[33],-0.159
same,glycan array binding signal (z-score),[34],-0.158
same,glycan array binding signal (z-score),[35],-0.163
same,glycan array binding signal (z-score),[36],3.68
same,glycan array binding signal (z-score),[37],-0.163
same,glycan array binding signal (z-score),[38],-0.085
